{"source": "the supplement of paper PMC8728848", "binders": {"B1": {"name": "B725 (Bifidobacterium sp) (protein)", "chain": "MNNTTRAVIATAAIGALLIPLAGCGNTTTSSGKTELTVWSWDASIDRAAKSFMKANPDITVKVSNVGSTEETYTALNNAAQAGSGLPDVTLIEYLAIPQFVHSDTLMDLSKVYNTAKLKDTFTPGTWNSVNINGGLYAMPADSGPMAYFYDKDVFDKAGISEPPTTWDEFYEDAKKIRATGSYITSDSGDAGLFNAMMWAMGGHAYKLNDDKLTINIAKDKGAQRFMDLWQKMRDEDLIDVHTKTWTDDWMKSLGDGSIASLISGAWMANNLLQGVPQATGKFRVALLPTIDGTPINGEYGGSGLAITKKIPDGKLDAAKKFVEYVTTNDEGIDARVSNGSFPATTKTLNQKDFLAKTTLRNTDGSDNEFFGGQKYNEIFSQAAKDVTGKWEFLPFEPYARSVYNDNMGSFFAGKTSFRTAADNWQKALKDYAKDQGFTVQ"}}, "test_in_all_cases": "glycan array binding signal (z-score within array); higher = stronger binding", "details_in_all_cases": "glycan notation: IUPAC condensed, linker removed", "key": {"[1]": {"target": "Neu5Ac(a2-6)Gal(b1-4)GlcNAc(b1-3)Gal(b1-4)GlcNAc(b1-3)GalNAc", "procedure,_shortened": "(§1)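 The Consortium for Functional Glycomics database supplied 3228 glycan arrays, of which those lacking an available protein sequence were dropped. The binding signal, a within-array Z-score, was averaged across arrays of the same protein sequence and across linkers. Negative scores can be read as non-binding.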"}, "[2]": {"target": "Neu5Ac(a2-6)Gal(b1-4)GlcNAc(b1-3)Gal(b1-4)GlcNAc(b1-3)[Neu5Ac(a2-6)Gal(b1-4)GlcNAc(b1-3)Gal(b1-4)GlcNAc(b1-6)]GalNAc", "procedure,_shortened": "as §1"}, "[3]": {"target": "Neu5Ac(a2-6)Gal(b1-4)GlcNAc(b1-3)Gal(b1-4)GlcNAc(b1-6)[Gal(b1-3)]GalNAc", "procedure,_shortened": "as §1"}, "[4]": {"target": "Neu5Ac(a2-6)Gal(b1-4)GlcNAc(b1-3)Gal(b1-4)[Fuc(a1-3)]GlcNAc(b1-3)Gal(b1-4)[Fuc(a1-3)]GlcNAc", "procedure,_shortened": "as §1"}, "[5]": {"target": "Neu5Ac(a2-6)Gal(b1-4)GlcNAc(b1-3)GalNAc", "procedure,_shortened": "as §1"}, "[6]": {"target": "Neu5Ac(a2-6)Gal(b1-4)GlcNAc(b1-3)[Neu5Ac(a2-6)Gal(b1-4)GlcNAc(b1-6)]GalNAc", "procedure,_shortened": "as §1"}, "[7]": {"target": "Neu5Ac(a2-6)Gal(b1-4)GlcNAc(b1-6)GalNAc", "procedure,_shortened": "as §1"}, "[8]": {"target": "Neu5Ac(a2-6)Gal(b1-4)GlcNAc(b1-6)[Gal(b1-3)GlcNAc(b1-3)]Gal(b1-4)Glc", "procedure,_shortened": "as §1"}, "[9]": {"target": "Neu5Ac(a2-6)Gal(b1-4)GlcNAc(b1-6)[Gal(b1-3)]GalNAc", "procedure,_shortened": "as §1"}, "[10]": {"target": "Neu5Ac(a2-6)Gal(b1-4)GlcNAc6S", "procedure,_shortened": "as §1"}, "Neu5Ac(a2-6)GalNAc": {"target": "Neu5Ac(a2-6)GalNAc", "procedure,_shortened": "as §1"}, "[11]": {"target": "Neu5Ac(a2-6)GalNAc(b1-4)GlcNAc", "procedure,_shortened": "as §1"}, "[12]": {"target": "Neu5Ac(a2-6)GalNAc(b1-4)GlcNAc6S", "procedure,_shortened": "as §1"}, "[13]": {"target": "Neu5Ac(a2-6)GlcNAc(b1-4)GlcNAc", "procedure,_shortened": "as §1"}, "[14]": {"target": "Neu5Ac(a2-6)GlcNAc(b1-4)GlcNAc(b1-4)GlcNAc", "procedure,_shortened": "as §1"}, "Neu5Ac(a2-8)Neu5Ac": {"target": "Neu5Ac(a2-8)Neu5Ac", "procedure,_shortened": "as §1"}, "[15]": {"target": "Neu5Ac(a2-8)Neu5Ac(a2-3)Gal(b1-3)GalNAc(b1-4)[Neu5Ac(a2-3)]Gal(b1-4)Glc", "procedure,_shortened": "as §1"}, "[16]": {"target": "Neu5Ac(a2-8)Neu5Ac(a2-3)Gal(b1-3)GalNAc(b1-4)[Neu5Ac(a2-8)Neu5Ac(a2-3)]Gal(b1-4)Glc", "procedure,_shortened": "as §1"}, "[17]": {"target": "Neu5Ac(a2-8)Neu5Ac(a2-3)Gal(b1-4)Glc", "procedure,_shortened": "as §1"}, "[18]": {"target": "Neu5Ac(a2-8)Neu5Ac(a2-3)Gal(b1-4)GlcNAc", "procedure,_shortened": "as §1"}, "[19]": {"target": "Neu5Ac(a2-8)Neu5Ac(a2-3)[Gal(b1-3)GalNAc(b1-4)]Gal(b1-4)Glc", "procedure,_shortened": "as §1"}, "[20]": {"target": "Neu5Ac(a2-8)Neu5Ac(a2-3)[GalNAc(b1-4)]Gal(b1-4)Glc", "procedure,_shortened": "as §1"}, "[21]": {"target": "Neu5Ac(a2-8)Neu5Ac(a2-8)Neu5Ac", "procedure,_shortened": "as §1"}, "[22]": {"target": "Neu5Ac(a2-8)Neu5Ac(a2-8)Neu5Ac(a2-3)Gal(b1-4)Glc", "procedure,_shortened": "as §1"}, "[23]": {"target": "Neu5Ac(a2-8)Neu5Ac(a2-8)Neu5Ac(a2-3)[Gal(b1-3)GalNAc(b1-4)]Gal(b1-4)Glc", "procedure,_shortened": "as §1"}, "[24]": {"target": "Neu5Ac(a2-8)Neu5Ac(a2-8)Neu5Ac(a2-3)[GalNAc(b1-4)]Gal(b1-4)Glc", "procedure,_shortened": "as §1"}, "[25]": {"target": "Neu5Ac(a2-8)Neu5Ac(a2-8)Neu5Ac(a2-8)Neu5Ac(a2-3)[GalNAc(b1-4)]Gal(b1-4)Glc", "procedure,_shortened": "as §1"}, "[26]": {"target": "Neu5Ac(a2-8)Neu5Gc(a2-3)Gal(b1-4)GlcNAc", "procedure,_shortened": "as §1"}, "[27]": {"target": "Neu5Ac(b2-6)Gal(b1-4)GlcNAc", "procedure,_shortened": "as §1"}, "Neu5Ac(b2-6)GalNAc": {"target": "Neu5Ac(b2-6)GalNAc", "procedure,_shortened": "as §1"}, "[28]": {"target": "Neu5Ac9Ac(a2-3)Gal(b1-3)GlcNAc", "procedure,_shortened": "as §1"}, "[29]": {"target": "Neu5Ac9Ac(a2-3)Gal(b1-4)GlcNAc", "procedure,_shortened": "as §1"}, "[30]": {"target": "Neu5Ac9Ac(a2-6)Gal(b1-4)GlcNAc", "procedure,_shortened": "as §1"}, "[31]": {"target": "Neu5Gc(a2-3)Gal(b1-3)GlcNAc", "procedure,_shortened": "as §1"}, "[32]": {"target": "Neu5Gc(a2-3)Gal(b1-3)[Fuc(a1-4)]GlcNAc", "procedure,_shortened": "as §1"}, "Neu5Gc(a2-3)Gal(b1-4)Glc": {"target": "Neu5Gc(a2-3)Gal(b1-4)Glc", "procedure,_shortened": "as §1"}, "[33]": {"target": "Neu5Gc(a2-3)Gal(b1-4)GlcNAc", "procedure,_shortened": "as §1"}, "[34]": {"target": "Neu5Gc(a2-3)Gal(b1-4)GlcNAc(b1-3)Gal(b1-4)GlcNAc(b1-2)Man(a1-3)[Neu5Gc(a2-3)Gal(b1-4)GlcNAc(b1-3)Gal(b1-4)GlcNAc(b1-2)Man(a1-6)]Man(b1-4)GlcNAc(b1-4)GlcNAc", "procedure,_shortened": "as §1"}, "[35]": {"target": "Neu5Gc(a2-3)Gal(b1-4)[Fuc(a1-3)]GlcNAc", "procedure,_shortened": "as §1"}, "[36]": {"target": "Neu5Gc(a2-6)Gal(b1-4)GlcNAc", "procedure,_shortened": "as §1"}, "Neu5Gc(a2-6)GalNAc": {"target": "Neu5Gc(a2-6)GalNAc", "procedure,_shortened": "as §1"}, "[37]": {"target": "Neu5Gc(a2-8)Neu5Ac(a2-3)Gal(b1-4)GlcNAc", "procedure,_shortened": "as §1"}, "[38]": {"target": "Neu5Gc(a2-8)Neu5Gc(a2-3)Gal(b1-4)GlcNAc", "procedure,_shortened": "as §1"}, "[39]": {"target": "Neu5Gc(a2-8)Neu5Gc(a2-3)Gal(b1-4)GlcNAc(b1-3)Gal(b1-4)GlcNAc", "procedure,_shortened": "as §1"}, "[40]": {"target": "Neu5Gc(a2-8)Neu5Gc(a2-6)Gal(b1-4)GlcNAc", "procedure,_shortened": "as §1"}, "[41]": {"target": "Neu5Gc(b2-6)Gal(b1-4)GlcNAc", "procedure,_shortened": "as §1"}}, "note": "The list shows a part of the results."}
{"binder": "B1", "values": [{"measurement": "glycan array binding signal (z-score)", "setting": "[1]", "value": -0.214}, {"measurement": "glycan array binding signal (z-score)", "setting": "[2]", "value": -0.227}, {"measurement": "glycan array binding signal (z-score)", "setting": "[3]", "value": -0.204}, {"measurement": "glycan array binding signal (z-score)", "setting": "[4]", "value": -0.214}, {"measurement": "glycan array binding signal (z-score)", "setting": "[5]", "value": -0.218}, {"measurement": "glycan array binding signal (z-score)", "setting": "[6]", "value": -0.226}, {"measurement": "glycan array binding signal (z-score)", "setting": "[7]", "value": -0.186}, {"measurement": "glycan array binding signal (z-score)", "setting": "[8]", "value": -0.194}, {"measurement": "glycan array binding signal (z-score)", "setting": "[9]", "value": -0.186}, {"measurement": "glycan array binding signal (z-score)", "setting": "[10]", "value": -0.215}, {"measurement": "glycan array binding signal (z-score)", "setting": "Neu5Ac(a2-6)GalNAc", "value": -0.23}, {"measurement": "glycan array binding signal (z-score)", "setting": "[11]", "value": -0.234}, {"measurement": "glycan array binding signal (z-score)", "setting": "[12]", "value": -0.224}, {"measurement": "glycan array binding signal (z-score)", "setting": "[13]", "value": -0.208}, {"measurement": "glycan array binding signal (z-score)", "setting": "[14]", "value": -0.225}, {"measurement": "glycan array binding signal (z-score)", "setting": "Neu5Ac(a2-8)Neu5Ac", "value": -0.215}, {"measurement": "glycan array binding signal (z-score)", "setting": "[15]", "value": -0.231}, {"measurement": "glycan array binding signal (z-score)", "setting": "[16]", "value": -0.2}, {"measurement": "glycan array binding signal (z-score)", "setting": "[17]", "value": -0.224}, {"measurement": "glycan array binding signal (z-score)", "setting": "[18]", "value": -0.223}, {"measurement": "glycan array binding signal (z-score)", "setting": "[19]", "value": -0.194}, {"measurement": "glycan array binding signal (z-score)", "setting": "[20]", "value": -0.22}, {"measurement": "glycan array binding signal (z-score)", "setting": "[21]", "value": -0.223}, {"measurement": "glycan array binding signal (z-score)", "setting": "[22]", "value": -0.229}, {"measurement": "glycan array binding signal (z-score)", "setting": "[23]", "value": -0.216}, {"measurement": "glycan array binding signal (z-score)", "setting": "[24]", "value": -0.225}, {"measurement": "glycan array binding signal (z-score)", "setting": "[25]", "value": -0.207}, {"measurement": "glycan array binding signal (z-score)", "setting": "[26]", "value": -0.226}, {"measurement": "glycan array binding signal (z-score)", "setting": "[27]", "value": -0.218}, {"measurement": "glycan array binding signal (z-score)", "setting": "Neu5Ac(b2-6)GalNAc", "value": -0.24}, {"measurement": "glycan array binding signal (z-score)", "setting": "[28]", "value": -0.228}, {"measurement": "glycan array binding signal (z-score)", "setting": "[29]", "value": -0.234}, {"measurement": "glycan array binding signal (z-score)", "setting": "[30]", "value": -0.219}, {"measurement": "glycan array binding signal (z-score)", "setting": "[31]", "value": -0.214}, {"measurement": "glycan array binding signal (z-score)", "setting": "[32]", "value": -0.225}, {"measurement": "glycan array binding signal (z-score)", "setting": "Neu5Gc(a2-3)Gal(b1-4)Glc", "value": -0.185}, {"measurement": "glycan array binding signal (z-score)", "setting": "[33]", "value": -0.217}, {"measurement": "glycan array binding signal (z-score)", "setting": "[34]", "value": -0.186}, {"measurement": "glycan array binding signal (z-score)", "setting": "[35]", "value": -0.222}, {"measurement": "glycan array binding signal (z-score)", "setting": "[36]", "value": -0.169}, {"measurement": "glycan array binding signal (z-score)", "setting": "Neu5Gc(a2-6)GalNAc", "value": -0.217}, {"measurement": "glycan array binding signal (z-score)", "setting": "[37]", "value": -0.201}, {"measurement": "glycan array binding signal (z-score)", "setting": "[38]", "value": -0.198}, {"measurement": "glycan array binding signal (z-score)", "setting": "[39]", "value": -0.198}, {"measurement": "glycan array binding signal (z-score)", "setting": "[40]", "value": -0.219}, {"measurement": "glycan array binding signal (z-score)", "setting": "[41]", "value": -0.214}]}
